Inconclusive means that the source gave no clear call. Such entries were picked first, then a sample of the others. Where the call is inconclusive, the potency comes from a doubtful curve fit. The source made the active and inactive calls. Calls follow the shape of the dose curve; as a rule, active = well fitted inhibition curve with a large enough effect; inconclusive = small, poorly fitted or top-dose-only effect; inactive = no such curve, though single readings can be large or run the other way.
biological target: Retinaldehyde dehydrogenase 3 (Homo sapiens) (UniProt P47895); assay: qHTS for Inhibitors of the Aldehyde Dehydrogenase Family (ALDH1A3) Primary screen (AID 2061315); settings: ALDH inhibition qHTS; activity change, negative = inhibition: at 56 µM (top of the series) unless noted
Potency is read from the fitted curve at half-maximal effect; tags tell the direction and shape of the fitted curve.

SMILES	Potency
Cc1ccc(CN(C)c2ccc(N3CCN(C)CC3)cc2)cc1	inconclusive: 11.2 µM [inhibitor, partial curve]
COc1ccc([N+](=O)[O-])c(S(=O)(=O)c2ccc(Cl)cc2)n1	inconclusive: 15.8 µM [inhibitor, partial curve]
Cc1cc(-c2nnc3n2CCCCC3)c(C)n1-c1cccc2ccccc12	inconclusive: 4.47 µM [inhibitor, partial curve, poor fit]
CC(=O)Nc1sc2c(c1-c1ccc(N(C)C)cc1)CCNC2	inconclusive: 2.82 µM [inhibitor, full curve]
N#Cc1cccnc1SC1=NS(=O)(=O)c2ccccc21	inconclusive: 0.794 µM [inhibitor, full curve, poor fit]
O=C(O)c1cnn(-c2nc3cc(OC(F)(F)F)c(Cl)cc3[nH]2)c1	active: 10 µM
COc1ccc2c(c1)O[C@H](O[C@@H]1O[C@H](CO)[C@@H](O)[C@H](O)[C@H]1O)C(=O)N2	active: 6.31 µM
O=C(Nc1ncc(Cc2ccc(C(F)(F)F)cc2)s1)c1ccc(-c2ccccc2[N+](=O)[O-])o1	inconclusive: 20 µM [inhibitor, single point]
COc1ccc(O)c(C2Nc3ccccc3C(=O)N2Cc2ccccc2)c1 (stereo not drawn)	inconclusive: 8.91 µM [inhibitor, partial curve]
NC(=O)C1CCN(c2ncc(-c3ccc4c(c3)OCO4)s2)CC1	inconclusive: 28.2 µM [inhibitor, partial curve, poor fit]
Oc1ccc(Oc2ccccc2F)c2cccnc12	inconclusive: 39.8 µM [inhibitor, single point]
Cc1cc(C)c2c(c1)C(N(Cc1cc(C(F)(F)F)cc(C(F)(F)F)c1)c1nnn(C)n1)CCCN2CC1CCC(C(=O)O)CC1 (stereo not drawn)	inconclusive: 17.8 µM [inhibitor, partial curve, poor fit]
O=C(O)c1cccc(-n2[nH]c(-c3ccccc3)cc2=O)c1	inconclusive: 7.08 µM [inhibitor, partial curve]

biological target: Aldehyde dehydrogenase 1A1 (Homo sapiens) (UniProt P00352); assay: qHTS for Inhibitors of the Aldehyde Dehydrogenase Family (ALDH1A1) Confirmatory screens (AID 2061316); settings: ALDH inhibition qHTS; activity change, negative = inhibition: at 47.3 µM (top of the series); series mostly up to 47.3 µM; also: nearly all actives have a fitted effect of over 65% in size; as to activity change, negative = inhibition: % is scaled to controls: 0 for no effect and ±100 for the full control effect

SMILES	Potency	activity change, negative = inhibition	outcome
Cc1ccc(CN(C)c2ccc(N3CCN(C)CC3)cc2)cc1	active: 2.01 µM		
CN(C)C(=O)/N=N/C(=O)N(C)C	inconclusive: 5.04 µM [inhibitor, full curve]		
COc1ccc([N+](=O)[O-])c(S(=O)(=O)c2ccc(Cl)cc2)n1	active: 1.27 µM		
CC(=O)Nc1sc2c(c1-c1ccc(N(C)C)cc1)CCNC2	active: 11.3 µM		
N#Cc1cccnc1SC1=NS(=O)(=O)c2ccccc21	active: 0.0712 µM		
O=C(O)c1cnn(-c2nc3cc(OC(F)(F)F)c(Cl)cc3[nH]2)c1		inactive: -9.51%	
COc1ccc2c(c1)O[C@H](O[C@@H]1O[C@H](CO)[C@@H](O)[C@H](O)[C@H]1O)C(=O)N2	inconclusive: 5.54 µM [inhibitor, partial curve]		
O=C(c1cccc(Cl)c1F)N1CCN(Cc2cccc(Nc3nccs3)n2)CC1	inconclusive: 11.3 µM [inhibitor, partial curve]		
Cn1c(N2CCCCS2(=O)=O)nc(C(=O)NCc2ccc(F)cc2)c(O)c1=O		inactive: -24.9%	
Cc1ccc2c(c1)C(N1CCN(C)CC1)=Nc1cccnc1N2	active: 12.7 µM		
CC(C)(C)OC(=O)N1CCN(c2ccc(NCc3ccc4c(-c5ccc(F)cc5)cc(=O)oc4c3)cc2)CC1		inconclusive: -34.3% [inhibitor]	
O=C(Nc1ncc(Cc2ccc(C(F)(F)F)cc2)s1)c1ccc(-c2ccccc2[N+](=O)[O-])o1	active: 6.34 µM		
COc1ccc(O)c(C2Nc3ccccc3C(=O)N2Cc2ccccc2)c1 (stereo not drawn)	inconclusive: 25.2 µM [inhibitor, partial curve]		
CC(=O)Nc1sc2c(c1-c1csc3ccccc13)CCNC2	inconclusive: 35.7 µM [inhibitor, partial curve, poor fit]		
CCCCNC(=O)[C@@H]1Cc2ccccc2N1C(=O)[C@@H](N)CC			inactive
O=C(Nc1cc(Cc2ccccc2)ccn1)c1ccc(-c2cccc([N+](=O)[O-])c2)o1	inconclusive: 11.3 µM [inhibitor, partial curve]		
CCn1cnc2c(Nc3ccc(CC(=O)N=C(N)N)cc3)nc(C#N)nc21		inactive: -9.41%	
COc1ccc(C(=O)N(Cc2ccco2)Cc2ccco2)c(O)c1	active: 7.12 µM		
Cc1noc(C)c1-c1cccc(-c2nn3c(=O)cc(N4CCNCC4)nc3s2)c1	inconclusive: 6.34 µM [inhibitor, full curve]		
O=C(O)c1cccc(-n2[nH]c(-c3ccccc3)cc2=O)c1	active: 25.1 µM		

From PubChem BioAssay (NCATS)
